{
  "source": "the supplement of paper PMC4967469",
  "note": "A lower IC50 marks a more sensitive line; a limit (>, <) means that the fit lies beyond the doses tested. AUC, from the same fit, is the share of area under the viability curve across the 256-fold dose range; values near 1 show little effect. Where the top dose is marked as inferred, it was derived from the fitted curves, not read from the paper.",
  "data": [
    {"compound": "CCn1cc(-c2ccnc3[nH]c(-c4cccc(CN(C)C)c4)cc23)c(-c2ccc(NC(=O)N(C)C)cc2)n1 [GSK1070916]", "test": "Viability of human cancer cell lines after 72 h of drug (GDSC screen)", "settings": "top dose inferred", "protocol": "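Human cancer cell lines in 384-well plates, medium with 10% serum, drug for 72 h over a 256-fold dose range (nine 2-fold or five 4-fold steps up to the top dose). Adherent lines were fixed and stained with the nucleic acid dye Syto60, suspension lines read with resazurin; signal relative to control wells, capped at 0 and 100%. One two-parameter sigmoid per drug and line, fitted in a mixed model over all curves with the slope shared within a line.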", "units": {"IC50": "µM"}, "values": [
      {"cell line": "Daudi (Burkitt lymphoma, suspension, top dose 2.56 µM)", "AUC": 0.813, "IC50": 1.17},
      {"cell line": "NCI-H1836 (small cell lung carcinoma, suspension, top dose 2.56 µM)", "AUC": 0.932, "IC50": "> 2.56"},
      {"cell line": "MC-IXC (neuroblastoma, adherent, top dose 2.56 µM)", "AUC": 0.918, "IC50": 1.99},
      {"cell line": "ML-2 (acute myeloid leukaemia, suspension, top dose 2.56 µM)", "AUC": 0.207, "IC50": 0.025},
      {"cell line": "NCI-H3122 (lung adenocarcinoma, adherent, top dose 2.56 µM)", "AUC": 0.926, "IC50": "> 2.56"},
      {"cell line": "SK-MG-1 (glioma, adherent, top dose 2.56 µM)", "AUC": 0.972, "IC50": "> 2.56"},
      {"cell line": "LU-134-A (small cell lung carcinoma, suspension, top dose 2.56 µM)", "AUC": 0.448, "IC50": 0.114},
      {"cell line": "SK-N-DZ (neuroblastoma, adherent, top dose 2.56 µM)", "AUC": 0.979, "IC50": "> 2.56"},
      {"cell line": "SNU-C5 (large intestine, adherent, top dose 2.56 µM)", "AUC": 0.921, "IC50": "> 2.56"},
      {"cell line": "Hs746T (stomach, adherent, top dose 2.56 µM)", "AUC": 0.915, "IC50": "> 2.56"},
      {"cell line": "NCI-H358 (lung adenocarcinoma, adherent, top dose 2.56 µM)", "AUC": 0.862, "IC50": "> 2.56"},
      {"cell line": "PC-14 (lung adenocarcinoma, adherent, top dose 2.56 µM)", "AUC": 0.921, "IC50": "> 2.56"},
      {"cell line": "SCH (stomach, adherent, top dose 2.56 µM)", "AUC": 0.984, "IC50": "> 2.56"},
      {"cell line": "EFM-192A (breast, adherent, top dose 2.56 µM)", "AUC": 0.974, "IC50": "> 2.56"},
      {"cell line": "ME-180 (cervix, adherent, top dose 2.56 µM)", "AUC": 0.876, "IC50": "> 2.56"},
      {"cell line": "MC-CAR (haematopoietic neoplasm, suspension, top dose 2.56 µM)", "AUC": 0.844, "IC50": 1.55},
      {"cell line": "PE/CA-PJ15 (head and neck, adherent, top dose 2.56 µM)", "AUC": 0.972, "IC50": "> 2.56"},
      {"cell line": "HCC2998 (large intestine, adherent, top dose 2.56 µM)", "AUC": 0.98, "IC50": "> 2.56"},
      {"cell line": "SNU-C1 (large intestine, suspension, top dose 2.56 µM)", "AUC": 0.943, "IC50": "> 2.56"},
      {"cell line": "KYM-1 (rhabdomyosarcoma, adherent, top dose 2.56 µM)", "AUC": 0.986, "IC50": "> 2.56"},
      {"cell line": "H2369 (mesothelioma, adherent, top dose 2.56 µM)", "AUC": 0.984, "IC50": "> 2.56"},
      {"cell line": "5637 (bladder, adherent, top dose 2.56 µM)", "AUC": 0.173, "IC50": 0.0187},
      {"cell line": "KM-H2 (Hodgkin lymphoma, suspension, top dose 2.56 µM)", "AUC": 0.916, "IC50": "> 2.56"},
      {"cell line": "KLE (endometrium, adherent, top dose 2.56 µM)", "AUC": 0.934, "IC50": "> 2.56"},
      {"cell line": "SK-LMS-1 (soft tissue, adherent, top dose 2.56 µM)", "AUC": 0.903, "IC50": "> 2.56"},
      {"cell line": "SCC90 (head and neck, adherent, top dose 2.56 µM)", "AUC": 0.685, "IC50": 0.662},
      {"cell line": "EB-3 (Burkitt lymphoma, suspension, top dose 2.56 µM)", "AUC": 0.898, "IC50": "> 2.56"},
      {"cell line": "RMG-I (ovary, adherent, top dose 2.56 µM)", "AUC": 0.924, "IC50": "> 2.56"},
      {"cell line": "YMB-1-E (breast, adherent, top dose 2.56 µM)", "AUC": 0.982, "IC50": "> 2.56"},
      {"cell line": "HT-115 (large intestine, adherent, top dose 2.56 µM)", "AUC": 0.982, "IC50": "> 2.56"},
      {"cell line": "GI-ME-N (neuroblastoma, adherent, top dose 2.56 µM)", "AUC": 0.809, "IC50": 1.99},
      {"cell line": "HCC2218 (breast, suspension, top dose 2.56 µM)", "AUC": 0.98, "IC50": "> 2.56"},
      {"cell line": "OMC-1 (cervix, adherent, top dose 2.56 µM)", "AUC": 0.961, "IC50": "> 2.56"},
      {"cell line": "LU-65 (large cell lung carcinoma, suspension, top dose 2.56 µM)", "AUC": 0.94, "IC50": "> 2.56"},
      {"cell line": "NCI-H650 (lung adenocarcinoma, adherent, top dose 2.56 µM)", "AUC": 0.938, "IC50": "> 2.56"},
      {"cell line": "A172 (glioma, adherent, top dose 2.56 µM)", "AUC": 0.958, "IC50": "> 2.56"},
      {"cell line": "HARA (lung squamous cell carcinoma, adherent, top dose 2.56 µM)", "AUC": 0.75, "IC50": 0.957},
      {"cell line": "NCI-H2452 (mesothelioma, adherent, top dose 2.56 µM)", "AUC": 0.984, "IC50": "> 2.56"},
      {"cell line": "SW684 (fibrosarcoma, adherent, top dose 2.56 µM)", "AUC": 0.982, "IC50": "> 2.56"},
      {"cell line": "G-361 (melanoma, adherent, top dose 2.56 µM)", "AUC": 0.957, "IC50": "> 2.56"},
      {"cell line": "ST486 (Burkitt lymphoma, suspension, top dose 2.56 µM)", "AUC": 0.086, "IC50": "< 0.01"},
      {"cell line": "SW900 (lung squamous cell carcinoma, adherent, top dose 2.56 µM)", "AUC": 0.975, "IC50": "> 2.56"},
      {"cell line": "HEC-1 (endometrium, adherent, top dose 2.56 µM)", "AUC": 0.989, "IC50": "> 2.56"},
      {"cell line": "PL-21 (acute myeloid leukaemia, suspension, top dose 2.56 µM)", "AUC": 0.776, "IC50": 1.19},
      {"cell line": "SH-4 (melanoma, adherent, top dose 2.56 µM)", "AUC": 0.909, "IC50": "> 2.56"},
      {"cell line": "RF-48 (stomach, adherent, top dose 2.56 µM)", "AUC": 0.882, "IC50": "> 2.56"},
      {"cell line": "ML-1 (thyroid, adherent, top dose 2.56 µM)", "AUC": 0.926, "IC50": "> 2.56"},
      {"cell line": "DG-75 (Burkitt lymphoma, suspension, top dose 2.56 µM)", "AUC": 0.977, "IC50": "> 2.56"},
      {"cell line": "NCI-H1435 (lung adenocarcinoma, semi-adherent, top dose 2.56 µM)", "AUC": 0.986, "IC50": "> 2.56"},
      {"cell line": "SF126 (glioma, adherent, top dose 2.56 µM)", "AUC": 0.97, "IC50": "> 2.56"},
      {"cell line": "NCI-H1355 (lung adenocarcinoma, adherent, top dose 2.56 µM)", "AUC": 0.972, "IC50": "> 2.56"},
      {"cell line": "EFM-19 (breast, adherent, top dose 2.56 µM)", "AUC": 0.904, "IC50": "> 2.56"},
      {"cell line": "NCI-H630 (large intestine, adherent, top dose 2.56 µM)", "AUC": 0.956, "IC50": "> 2.56"},
      {"cell line": "KP-N-YS (neuroblastoma, adherent, top dose 2.56 µM)", "AUC": 0.306, "IC50": 0.0419},
      {"cell line": "AsPC-1 (pancreas, adherent, top dose 2.56 µM)", "AUC": 0.924, "IC50": "> 2.56"},
      {"cell line": "KMH-2 (thyroid, adherent, top dose 2.56 µM)", "AUC": 0.917, "IC50": "> 2.56"},
      {"cell line": "COR-L88 (small cell lung carcinoma, adherent, top dose 2.56 µM)", "AUC": 0.932, "IC50": "> 2.56"},
      {"cell line": "VCaP (prostate, adherent, top dose 2.56 µM)", "AUC": 0.865, "IC50": 2.41},
      {"cell line": "NCI-H1694 (small cell lung carcinoma, suspension, top dose 2.56 µM)", "AUC": 0.872, "IC50": 2.43},
      {"cell line": "KYSE-270 (oesophagus, adherent, top dose 2.56 µM)", "AUC": 0.967, "IC50": "> 2.56"},
      {"cell line": "AGS (stomach, adherent, top dose 2.56 µM)", "AUC": 0.972, "IC50": "> 2.56"},
      {"cell line": "TE-441-T (rhabdomyosarcoma, adherent, top dose 2.56 µM)", "AUC": 0.899, "IC50": "> 2.56"},
      {"cell line": "H4 (glioma, adherent, top dose 2.56 µM)", "AUC": 0.826, "IC50": 1.53},
      {"cell line": "M059J (glioma, adherent, top dose 2.56 µM)", "AUC": 0.869, "IC50": "> 2.56"},
      {"cell line": "RH-18 (rhabdomyosarcoma, adherent, top dose 2.56 µM)", "AUC": 0.838, "IC50": 2.09},
      {"cell line": "VMRC-RCZ (kidney, adherent, top dose 2.56 µM)", "AUC": 0.854, "IC50": "> 2.56"},
      {"cell line": "NCI-H187 (small cell lung carcinoma, suspension, top dose 2.56 µM)", "AUC": 0.732, "IC50": 0.785},
      {"cell line": "TK10 (kidney, adherent, top dose 2.56 µM)", "AUC": 0.931, "IC50": "> 2.56"},
      {"cell line": "TOV-112D (ovary, adherent, top dose 2.56 µM)", "AUC": 0.796, "IC50": 1.21},
      {"cell line": "NB13 (neuroblastoma, adherent, top dose 2.56 µM)", "AUC": 0.955, "IC50": "> 2.56"},
      {"cell line": "SK-LU-1 (lung adenocarcinoma, adherent, top dose 2.56 µM)", "AUC": 0.949, "IC50": "> 2.56"},
      {"cell line": "BB65-RCC (kidney, adherent, top dose 2.56 µM)", "AUC": 0.982, "IC50": "> 2.56"},
      {"cell line": "EW-18 (Ewing sarcoma, suspension, top dose 2.56 µM)", "AUC": 0.145, "IC50": 0.0113},
      {"cell line": "C2BBe1 (large intestine, adherent, top dose 2.56 µM)", "AUC": 0.983, "IC50": "> 2.56"},
      {"cell line": "CESS (acute myeloid leukaemia, suspension, top dose 2.56 µM)", "AUC": 0.178, "IC50": 0.021},
      {"cell line": "Hs-578-T (breast, adherent, top dose 2.56 µM)", "AUC": 0.987, "IC50": "> 2.56"},
      {"cell line": "COLO-680N (oesophagus, adherent, top dose 2.56 µM)", "AUC": 0.974, "IC50": "> 2.56"},
      {"cell line": "Hey (ovary, adherent, top dose 2.56 µM)", "AUC": 0.928, "IC50": "> 2.56"},
      {"cell line": "SNB75 (glioma, adherent, top dose 2.56 µM)", "AUC": 0.964, "IC50": "> 2.56"}
    ]}
  ]
}
